# Measured values: the supplement of paper PMC8728848
# The other results are listed elsewhere or left out.
# Tests used:
# Experiment in all cases: glycan array binding signal (z-score within array); higher = stronger binding
# Settings in all cases: glycan notation: IUPAC condensed, linker removed
# Gal(a1-3)Gal(b1-3)GlcNAc = biological target: Gal(a1-3)Gal(b1-3)GlcNAc
# Outline: (§1)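 Arrays were curated from the Consortium for Functional Glycomics database, 3228 in total, and kept only where the protein sequence was available. Binding is expressed as a within-array Z-score. This score was averaged across arrays of the same protein sequence at different concentrations or buffers and across linkers, and negative values can be read as non-binding.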
# [1] = biological target: Gal(a1-3)Gal(b1-3)GlcNAc(b1-2)Man
# Outline: as §1
# [2] = biological target: Gal(a1-3)Gal(b1-3)GlcNAc(b1-2)Man(a1-3)[Gal(a1-3)Gal(b1-3)GlcNAc(b1-2)Man(a1-6)]Man(b1-4)GlcNAc(b1-4)GlcNAc
# Outline: as §1
# [3] = biological target: Gal(a1-3)Gal(b1-3)GlcNAc(b1-3)GalNAc
# Outline: as §1
# [4] = biological target: Gal(a1-3)Gal(b1-3)GlcNAc(b1-6)GalNAc
# Outline: as §1
# [5] = biological target: Gal(a1-3)Gal(b1-3)[Fuc(a1-4)]GlcNAc(b1-2)Man(a1-3)[Gal(a1-3)Gal(b1-3)[Fuc(a1-4)]GlcNAc(b1-2)Man(a1-6)]Man(b1-4)GlcNAc(b1-4)GlcNAc
# Outline: as §1
# Gal(a1-3)Gal(b1-4)Glc = biological target: Gal(a1-3)Gal(b1-4)Glc
# Outline: as §1
# Gal(a1-3)Gal(b1-4)GlcNAc = biological target: Gal(a1-3)Gal(b1-4)GlcNAc
# Outline: as §1
# [6] = biological target: Gal(a1-3)Gal(b1-4)GlcNAc(b1-2)Man
# Outline: as §1
# [7] = biological target: Gal(a1-3)Gal(b1-4)GlcNAc(b1-2)Man(a1-3)[Gal(a1-3)Gal(b1-4)GlcNAc(b1-2)Man(a1-6)]Man(b1-4)GlcNAc(b1-4)GlcNAc
# Outline: as §1
# [8] = biological target: Gal(a1-3)Gal(b1-4)GlcNAc(b1-3)GalNAc
# Outline: as §1
# [9] = biological target: Gal(a1-3)Gal(b1-4)GlcNAc(b1-6)GalNAc
# Outline: as §1
# [10] = biological target: Gal(a1-3)Gal(b1-4)[Fuc(a1-3)]GlcNAc
# Outline: as §1
# [11] = biological target: Gal(a1-3)Gal(b1-4)[Fuc(a1-3)]GlcNAc(b1-2)Man(a1-3)[Gal(a1-3)Gal(b1-4)[Fuc(a1-3)]GlcNAc(b1-2)Man(a1-6)]Man(b1-4)GlcNAc(b1-4)GlcNAc
# Outline: as §1
# Gal(a1-3)GalNAc = biological target: Gal(a1-3)GalNAc
# Outline: as §1
# [12] = biological target: Gal(a1-3)[Gal(a1-4)]Gal(b1-4)GlcNAc
# Outline: as §1
# [13] = biological target: Gal(a1-4)Gal(b1-3)GlcNAc(b1-2)Man(a1-3)[Gal(a1-4)Gal(b1-3)GlcNAc(b1-2)Man(a1-6)]Man(b1-4)GlcNAc(b1-4)GlcNAc
# Outline: as §1
# Gal(a1-4)Gal(b1-4)Glc = biological target: Gal(a1-4)Gal(b1-4)Glc
# Outline: as §1
# Gal(a1-4)Gal(b1-4)GlcNAc = biological target: Gal(a1-4)Gal(b1-4)GlcNAc
# Outline: as §1
# [14] = biological target: Gal(a1-4)Gal(b1-4)GlcNAc(b1-2)Man(a1-3)[Gal(a1-4)Gal(b1-4)GlcNAc(b1-2)Man(a1-6)]Man(b1-4)GlcNAc(b1-4)GlcNAc
# Outline: as §1
# [15] = biological target: Gal(a1-4)Gal(b1-4)GlcNAc(b1-3)Gal(b1-4)Glc
# Outline: as §1
# Gal(a1-4)GlcNAc = biological target: Gal(a1-4)GlcNAc
# Outline: as §1
# Gal(a1-6)Glc = biological target: Gal(a1-6)Glc
# Outline: as §1
# Gal(b1-2)Gal = biological target: Gal(b1-2)Gal
# Outline: as §1
# Gal(b1-3)Gal = biological target: Gal(b1-3)Gal
# Outline: as §1
# Gal(b1-3)Gal(b1-4)GlcNAc = biological target: Gal(b1-3)Gal(b1-4)GlcNAc
# Outline: as §1
# Gal(b1-3)GalNAc = biological target: Gal(b1-3)GalNAc
# Outline: as §1
# [16] = biological target: Gal(b1-3)GalNAc(a1-3)[Fuc(a1-2)]Gal(b1-4)Glc
# Outline: as §1
# [17] = biological target: Gal(b1-3)GalNAc(a1-3)[Fuc(a1-2)]Gal(b1-4)GlcNAc
# Outline: as §1
# Gal(b1-3)GalNAc(b1-3)Gal = biological target: Gal(b1-3)GalNAc(b1-3)Gal
# Outline: as §1
# [18] = biological target: Gal(b1-3)GalNAc(b1-3)Gal(a1-4)Gal(b1-4)Glc
# Outline: as §1
# [19] = biological target: Gal(b1-3)GalNAc(b1-4)Gal(b1-4)Glc
# Outline: as §1
# [20] = biological target: Gal(b1-3)GalNAc(b1-4)[Neu5Ac(a2-3)]Gal(b1-4)Glc
# Outline: as §1
# Gal(b1-3)GlcNAc = biological target: Gal(b1-3)GlcNAc
# Outline: as §1
# [21] = biological target: Gal(b1-3)GlcNAc(a1-3)Gal(b1-4)GlcNAc
# Outline: as §1
# [22] = biological target: Gal(b1-3)GlcNAc(a1-6)Gal(b1-4)GlcNAc
# Outline: as §1
# Gal(b1-3)GlcNAc(b1-2)Man = biological target: Gal(b1-3)GlcNAc(b1-2)Man
# Outline: as §1
# [23] = biological target: Gal(b1-3)GlcNAc(b1-2)Man(a1-3)[Gal(b1-3)GlcNAc(b1-2)Man(a1-6)]Man(b1-4)GlcNAc(b1-4)GlcNAc
# Outline: as §1
binder,measurement,setting,value
"mCC1-Hexahis-Precomplexed (Mus musculus), P31809 (protein) MELASAHLHKGQVPWGGLLLTASLLASWSPATTAEVTIEAVPPQVAEDNNVLLLVHNLPLALGAFAWYKGNTTAIDKEIARFVPNSNMNFTGQAYSGREIIYSNGSLLFQMITMKDMGVYTLDMTDENYRRTQATVRFHVHPILLKPNITSNNSNPVEGDDSVSLTCDSYTDPDNINYLWSRNGESLSEGDRLKLSEGNRTLTLLNVTRNDTGPYVCETRNPVSVNRSDPFSLNIIYGPDTPIISPSDIYLHPGSNLNLSCHAASNPPAQYFWLINEKPHASSQELFIPNITTNNSGTYTCFVNNSVTGLSRTTVKNITVLEPVTQPFLQVTNTTVKELDSVTLTCLSNDIGANIQWLFNSQSLQLTERMTLSQNNSILRIDPIKREDAGEYQCEISNPVSVRRSNSIKLDIIFDPTQGGLSDGHHHHHH",glycan array binding signal (z-score),Gal(a1-3)Gal(b1-3)GlcNAc,-0.068
same,glycan array binding signal (z-score),[1],-0.169
same,glycan array binding signal (z-score),[2],-0.189
same,glycan array binding signal (z-score),[3],-0.305
same,glycan array binding signal (z-score),[4],-0.269
same,glycan array binding signal (z-score),[5],-0.11
same,glycan array binding signal (z-score),Gal(a1-3)Gal(b1-4)Glc,-0.137
same,glycan array binding signal (z-score),Gal(a1-3)Gal(b1-4)GlcNAc,-0.189
same,glycan array binding signal (z-score),[6],-0.254
same,glycan array binding signal (z-score),[7],-0.161
same,glycan array binding signal (z-score),[8],-0.221
same,glycan array binding signal (z-score),[9],-0.245
same,glycan array binding signal (z-score),[10],-0.214
same,glycan array binding signal (z-score),[11],0.03
same,glycan array binding signal (z-score),Gal(a1-3)GalNAc,0.124
same,glycan array binding signal (z-score),[12],-0.214
same,glycan array binding signal (z-score),[13],-0.14
same,glycan array binding signal (z-score),Gal(a1-4)Gal(b1-4)Glc,-0.253
same,glycan array binding signal (z-score),Gal(a1-4)Gal(b1-4)GlcNAc,-0.227
same,glycan array binding signal (z-score),[14],-0.232
same,glycan array binding signal (z-score),[15],-0.233
same,glycan array binding signal (z-score),Gal(a1-4)GlcNAc,-0.205
same,glycan array binding signal (z-score),Gal(a1-6)Glc,-0.166
same,glycan array binding signal (z-score),Gal(b1-2)Gal,-0.263
same,glycan array binding signal (z-score),Gal(b1-3)Gal,-0.234
same,glycan array binding signal (z-score),Gal(b1-3)Gal(b1-4)GlcNAc,-0.202
same,glycan array binding signal (z-score),Gal(b1-3)GalNAc,-0.115
same,glycan array binding signal (z-score),[16],-0.269
same,glycan array binding signal (z-score),[17],-0.191
same,glycan array binding signal (z-score),Gal(b1-3)GalNAc(b1-3)Gal,-0.278
same,glycan array binding signal (z-score),[18],-0.146
same,glycan array binding signal (z-score),[19],-0.182
same,glycan array binding signal (z-score),[20],-0.269
same,glycan array binding signal (z-score),Gal(b1-3)GlcNAc,-0.25
same,glycan array binding signal (z-score),[21],-0.095
same,glycan array binding signal (z-score),[22],-0.244
same,glycan array binding signal (z-score),Gal(b1-3)GlcNAc(b1-2)Man,-0.26
same,glycan array binding signal (z-score),[23],-0.103
